# Laboratory results: the supplement of paper PMC8728848
# Some of the results follow.
# B1: WGA (Triticum vulgare) (protein)
# chain: QRCGEQGSNMECPNNLCCSQYGYCGMGGDYCGKGCQNGACWTSKRCGSQAGGATCPNNHCCSQYGHCGFGAEYCGAGCQGGPCRADIKCGSQSGGKLCPNNLCCSQWGFCGLGSEFCGGGCQSGACSTDKPCGKDAGGRVCTNNYCCSKWGSCGIGPGYCGAGCQSGGCDAVFAGAITANSTLLAE
# What was measured:
# Experiment in all cases: glycan array binding signal (z-score within array); higher = stronger binding
# Details in all cases: glycan notation: IUPAC condensed, linker removed
# [1] = target: GlcNAc(b1-2)[GlcNAc(b1-4)]Man(a1-3)[GlcNAc(b1-2)Man(a1-6)]Man(b1-4)GlcNAc(b1-4)GlcNAc
# Procedure, shortened: (§1)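 Glycan array data were curated from 3228 arrays in the Consortium for Functional Glycomics database and kept only where the protein sequence was available. Glycan names were converted to IUPAC-condensed notation, and columns mapping to the same glycan were averaged. The binding signal is a within-array Z-score, averaged across arrays of the same protein sequence at different concentrations or buffers and across linkers. Negative Z-scores can be read as non-binding.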
# [2] = target: GlcNAc(b1-2)[GlcNAc(b1-4)]Man(a1-3)[GlcNAc(b1-4)][GlcNAc(b1-2)Man(a1-6)]Man(b1-4)GlcNAc(b1-4)GlcNAc
# Procedure, shortened: as §1
# [3] = target: GlcNAc(b1-2)[GlcNAc(b1-4)]Man(a1-3)[GlcNAc(b1-4)][GlcNAc(b1-2)[GlcNAc(b1-6)]Man(a1-6)]Man(b1-4)GlcNAc(b1-4)GlcNAc
# Procedure, shortened: as §1
# [4] = target: GlcNAc(b1-2)[GlcNAc(b1-4)]Man(a1-3)[GlcNAc(b1-4)][GlcNAc(b1-2)[GlcNAc(b1-6)]Man(a1-6)]Man(b1-4)GlcNAc(b1-4)[Fuc(a1-6)]GlcNAc
# Procedure, shortened: as §1
# [5] = target: GlcNAc(b1-2)[GlcNAc(b1-6)]Man(a1-6)[GlcNAc(b1-2)Man(a1-3)]Man(b1-4)GlcNAc(b1-4)GlcNAc
# Procedure, shortened: as §1
# [6] = target: GlcNAc(b1-2)[GlcNAc(b1-6)]Man(a1-6)[GlcNAc(b1-2)Man(a1-3)]Man(b1-4)GlcNAc(b1-4)[Fuc(a1-6)]GlcNAc
# Procedure, shortened: as §1
# [7] = target: GlcNAc(b1-2)[GlcNAc(b1-6)]Man(a1-6)[GlcNAc(b1-4)][GlcNAc(b1-2)Man(a1-3)]Man(b1-4)GlcNAc(b1-4)GlcNAc
# Procedure, shortened: as §1
# [8] = target: GlcNAc(b1-3)Fuc
# Procedure, shortened: as §1
# [9] = target: GlcNAc(b1-3)Gal
# Procedure, shortened: as §1
# [10] = target: GlcNAc(b1-3)Gal(b1-3)GalNAc
# Procedure, shortened: as §1
# [11] = target: GlcNAc(b1-3)Gal(b1-4)Glc
# Procedure, shortened: as §1
# [12] = target: GlcNAc(b1-3)Gal(b1-4)GlcNAc
# Procedure, shortened: as §1
# [13] = target: GlcNAc(b1-3)Gal(b1-4)GlcNAc(b1-2)Man(a1-3)[GlcNAc(b1-3)Gal(b1-4)GlcNAc(b1-2)Man(a1-6)]Man(b1-4)GlcNAc(b1-4)GlcNAc
# Procedure, shortened: as §1
# [14] = target: GlcNAc(b1-3)Gal(b1-4)GlcNAc(b1-2)Man(a1-3)[GlcNAc(b1-3)Gal(b1-4)GlcNAc(b1-2)Man(a1-6)]Man(b1-4)GlcNAc(b1-4)[Fuc(a1-6)]GlcNAc
# Procedure, shortened: as §1
# [15] = target: GlcNAc(b1-3)Gal(b1-4)GlcNAc(b1-2)[GlcNAc(b1-3)Gal(b1-4)GlcNAc(b1-6)]Man(a1-6)[GlcNAc(b1-3)Gal(b1-4)GlcNAc(b1-2)Man(a1-3)]Man(b1-4)GlcNAc(b1-4)GlcNAc
# Procedure, shortened: as §1
# [16] = target: GlcNAc(b1-3)Gal(b1-4)GlcNAc(b1-3)Gal(b1-4)GlcNAc
# Procedure, shortened: as §1
# [17] = target: GlcNAc(b1-3)Gal(b1-4)GlcNAc(b1-3)Gal(b1-4)GlcNAc(b1-2)Man(a1-3)[GlcNAc(b1-3)Gal(b1-4)GlcNAc(b1-3)Gal(b1-4)GlcNAc(b1-2)Man(a1-6)]Man(b1-4)GlcNAc(b1-4)GlcNAc
# Procedure, shortened: as §1
# [18] = target: GlcNAc(b1-3)Gal(b1-4)GlcNAc(b1-3)Gal(b1-4)GlcNAc(b1-2)Man(a1-3)[GlcNAc(b1-3)Gal(b1-4)GlcNAc(b1-3)Gal(b1-4)GlcNAc(b1-2)Man(a1-6)]Man(b1-4)GlcNAc(b1-4)[Fuc(a1-6)]GlcNAc
# Procedure, shortened: as §1
# [19] = target: GlcNAc(b1-3)Gal(b1-4)GlcNAc(b1-3)Gal(b1-4)GlcNAc(b1-2)[GlcNAc(b1-3)Gal(b1-4)GlcNAc(b1-3)Gal(b1-4)GlcNAc(b1-6)]Man(a1-6)[GlcNAc(b1-3)Gal(b1-4)GlcNAc(b1-3)Gal(b1-4)GlcNAc(b1-2)Man(a1-3)]Man(b1-4)GlcNAc(b1-4)[Fuc(a1-6)]GlcNAc
# Procedure, shortened: as §1
# [20] = target: GlcNAc(b1-3)Gal(b1-4)GlcNAc(b1-3)Gal(b1-4)GlcNAc(b1-3)Gal(b1-4)GlcNAc(b1-2)Man(a1-3)[GlcNAc(b1-3)Gal(b1-4)GlcNAc(b1-3)Gal(b1-4)GlcNAc(b1-3)Gal(b1-4)GlcNAc(b1-2)Man(a1-6)]Man(b1-4)GlcNAc(b1-4)GlcNAc
# Procedure, shortened: as §1
# [21] = target: GlcNAc(b1-3)Gal(b1-4)GlcNAc(b1-3)Gal(b1-4)GlcNAc(b1-3)Gal(b1-4)GlcNAc(b1-2)Man(a1-3)[GlcNAc(b1-3)Gal(b1-4)GlcNAc(b1-3)Gal(b1-4)GlcNAc(b1-3)Gal(b1-4)GlcNAc(b1-2)Man(a1-6)]Man(b1-4)GlcNAc(b1-4)[Fuc(a1-6)]GlcNAc
# Procedure, shortened: as §1
# [22] = target: GlcNAc(b1-3)Gal(b1-4)GlcNAc(b1-3)Gal(b1-4)GlcNAc(b1-3)Gal(b1-4)GlcNAc(b1-2)[GlcNAc(b1-3)Gal(b1-4)GlcNAc(b1-3)Gal(b1-4)GlcNAc(b1-3)Gal(b1-4)GlcNAc(b1-6)]Man(a1-6)[GlcNAc(b1-3)Gal(b1-4)GlcNAc(b1-3)Gal(b1-4)GlcNAc(b1-3)Gal(b1-4)GlcNAc(b1-2)Man(a1-3)]Man(b1-4)GlcNAc(b1-4)[Fuc(a1-6)]GlcNAc
# Procedure, shortened: as §1
# [23] = target: GlcNAc(b1-3)Gal(b1-4)GlcNAc(b1-3)Gal(b1-4)GlcNAc(b1-3)Gal(b1-4)GlcNAc(b1-3)Gal(b1-4)GlcNAc(b1-2)Man(a1-3)[GlcNAc(b1-3)Gal(b1-4)GlcNAc(b1-3)Gal(b1-4)GlcNAc(b1-3)Gal(b1-4)GlcNAc(b1-3)Gal(b1-4)GlcNAc(b1-2)Man(a1-6)]Man(b1-4)GlcNAc(b1-4)GlcNAc
# Procedure, shortened: as §1
# [24] = target: GlcNAc(b1-3)Gal(b1-4)GlcNAc(b1-3)Gal(b1-4)GlcNAc(b1-3)Gal(b1-4)GlcNAc(b1-3)Gal(b1-4)GlcNAc(b1-2)Man(a1-3)[GlcNAc(b1-3)Gal(b1-4)GlcNAc(b1-3)Gal(b1-4)GlcNAc(b1-3)Gal(b1-4)GlcNAc(b1-3)Gal(b1-4)GlcNAc(b1-2)Man(a1-6)]Man(b1-4)GlcNAc(b1-4)[Fuc(a1-6)]GlcNAc
# Procedure, shortened: as §1
# [25] = target: GlcNAc(b1-3)Gal(b1-4)GlcNAc(b1-3)Gal(b1-4)GlcNAc(b1-3)Gal(b1-4)GlcNAc(b1-3)Gal(b1-4)GlcNAc(b1-2)[GlcNAc(b1-3)Gal(b1-4)GlcNAc(b1-3)Gal(b1-4)GlcNAc(b1-3)Gal(b1-4)GlcNAc(b1-3)Gal(b1-4)GlcNAc(b1-6)]Man(a1-6)[GlcNAc(b1-3)Gal(b1-4)GlcNAc(b1-3)Gal(b1-4)GlcNAc(b1-3)Gal(b1-4)GlcNAc(b1-3)Gal(b1-4)GlcNAc(b1-2)Man(a1-3)]Man(b1-4)GlcNAc(b1-4)[Fuc(a1-6)]GlcNAc
# Procedure, shortened: as §1
# [26] = target: GlcNAc(b1-3)Gal(b1-4)GlcNAc(b1-3)Gal(b1-4)GlcNAc(b1-3)GalNAc
# Procedure, shortened: as §1
# [27] = target: GlcNAc(b1-3)Gal(b1-4)GlcNAc(b1-3)GalNAc
# Procedure, shortened: as §1
# [28] = target: GlcNAc(b1-3)Gal(b1-4)GlcNAc(b1-3)[GlcNAc(b1-3)Gal(b1-4)GlcNAc(b1-3)]GalNAc
# Procedure, shortened: as §1
# [29] = target: GlcNAc(b1-3)Gal(b1-4)GlcNAc(b1-6)[Gal(b1-3)]GalNAc
# Procedure, shortened: as §1
# [30] = target: GlcNAc(b1-3)Gal(b1-4)GlcNAc(b1-6)[GlcNAc(b1-3)Gal(b1-3)]GalNAc
# Procedure, shortened: as §1
# [31] = target: GlcNAc(b1-3)Gal(b1-4)GlcNAc(b1-6)[GlcNAc(b1-3)]Gal(b1-4)GlcNAc
# Procedure, shortened: as §1
# [32] = target: GlcNAc(b1-3)GalNAc
# Procedure, shortened: as §1
# [33] = target: GlcNAc(b1-3)Man
# Procedure, shortened: as §1
# [34] = target: GlcNAc(b1-3)[GlcNAc(b1-4)][GlcNAc(b1-6)]GlcNAc
# Procedure, shortened: as §1
# [35] = target: GlcNAc(b1-3)[GlcNAc(b1-6)]Gal(b1-4)GlcNAc
# Procedure, shortened: as §1
# [36] = target: GlcNAc(b1-3)[GlcNAc(b1-6)]GalNAc
# Procedure, shortened: as §1
# [37] = target: GlcNAc(b1-3)[GlcNAc(b1-6)]GlcNAc(b1-4)GlcNAc
# Procedure, shortened: as §1
# [38] = target: GlcNAc(b1-4)Gal(b1-4)GlcNAc
# Procedure, shortened: as §1
# [39] = target: GlcNAc(b1-4)GlcNAc
# Procedure, shortened: as §1
# [40] = target: GlcNAc(b1-4)GlcNAc(b1-4)GlcNAc
# Procedure, shortened: as §1
# [41] = target: GlcNAc(b1-4)GlcNAc(b1-4)GlcNAc(b1-4)GlcNAc(b1-4)GlcNAc
# Procedure, shortened: as §1
# [42] = target: GlcNAc(b1-4)GlcNAc(b1-4)GlcNAc(b1-4)GlcNAc(b1-4)GlcNAc(b1-4)GlcNAc
# Procedure, shortened: as §1
# [43] = target: GlcNAc(b1-4)[GlcNAc(b1-6)]GalNAc
# Procedure, shortened: as §1
# [44] = target: GlcNAc(b1-6)Gal(b1-4)GlcNAc
# Procedure, shortened: as §1
# [45] = target: GlcNAc(b1-6)GalNAc
# Procedure, shortened: as §1
binder,measurement,setting,value
B1,glycan array binding signal (z-score),[1],-0.301
same,glycan array binding signal (z-score),[2],0.428
same,glycan array binding signal (z-score),[3],-0.086
same,glycan array binding signal (z-score),[4],-0.323
same,glycan array binding signal (z-score),[5],-0.176
same,glycan array binding signal (z-score),[6],-0.261
same,glycan array binding signal (z-score),[7],0.751
same,glycan array binding signal (z-score),[8],0.327
same,glycan array binding signal (z-score),[9],-0.316
same,glycan array binding signal (z-score),[10],-0.313
same,glycan array binding signal (z-score),[11],-0.11
same,glycan array binding signal (z-score),[12],1.25
same,glycan array binding signal (z-score),[13],1.29
same,glycan array binding signal (z-score),[14],1.15
same,glycan array binding signal (z-score),[15],1.43
same,glycan array binding signal (z-score),[16],1.71
same,glycan array binding signal (z-score),[17],1.24
same,glycan array binding signal (z-score),[18],1.49
same,glycan array binding signal (z-score),[19],2.17
same,glycan array binding signal (z-score),[20],2.28
same,glycan array binding signal (z-score),[21],1.6
same,glycan array binding signal (z-score),[22],2.47
same,glycan array binding signal (z-score),[23],2.29
same,glycan array binding signal (z-score),[24],1.81
same,glycan array binding signal (z-score),[25],2.45
same,glycan array binding signal (z-score),[26],-0.207
same,glycan array binding signal (z-score),[27],-0.359
same,glycan array binding signal (z-score),[28],-0.072
same,glycan array binding signal (z-score),[29],-0.267
same,glycan array binding signal (z-score),[30],-0.049
same,glycan array binding signal (z-score),[31],2.26
same,glycan array binding signal (z-score),[32],-0.343
same,glycan array binding signal (z-score),[33],-0.312
same,glycan array binding signal (z-score),[34],-0.342
same,glycan array binding signal (z-score),[35],1.64
same,glycan array binding signal (z-score),[36],0.053
same,glycan array binding signal (z-score),[37],0.452
same,glycan array binding signal (z-score),[38],-0.14
same,glycan array binding signal (z-score),[39],2.46
same,glycan array binding signal (z-score),[40],3.8
same,glycan array binding signal (z-score),[41],5.62
same,glycan array binding signal (z-score),[42],5.15
same,glycan array binding signal (z-score),[43],1.14
same,glycan array binding signal (z-score),[44],2.12
same,glycan array binding signal (z-score),[45],0.719
